From the supplement of paper PMC3334620
The full ranking holds about 33,000 sequences; the median of “E-score (-0.5 to 0.5)” is about -0.054, and the highest 2% start at about 0.35. This is one part of the list.

Target: T1, Stb5 (UniProt P38699)
T1 sequence: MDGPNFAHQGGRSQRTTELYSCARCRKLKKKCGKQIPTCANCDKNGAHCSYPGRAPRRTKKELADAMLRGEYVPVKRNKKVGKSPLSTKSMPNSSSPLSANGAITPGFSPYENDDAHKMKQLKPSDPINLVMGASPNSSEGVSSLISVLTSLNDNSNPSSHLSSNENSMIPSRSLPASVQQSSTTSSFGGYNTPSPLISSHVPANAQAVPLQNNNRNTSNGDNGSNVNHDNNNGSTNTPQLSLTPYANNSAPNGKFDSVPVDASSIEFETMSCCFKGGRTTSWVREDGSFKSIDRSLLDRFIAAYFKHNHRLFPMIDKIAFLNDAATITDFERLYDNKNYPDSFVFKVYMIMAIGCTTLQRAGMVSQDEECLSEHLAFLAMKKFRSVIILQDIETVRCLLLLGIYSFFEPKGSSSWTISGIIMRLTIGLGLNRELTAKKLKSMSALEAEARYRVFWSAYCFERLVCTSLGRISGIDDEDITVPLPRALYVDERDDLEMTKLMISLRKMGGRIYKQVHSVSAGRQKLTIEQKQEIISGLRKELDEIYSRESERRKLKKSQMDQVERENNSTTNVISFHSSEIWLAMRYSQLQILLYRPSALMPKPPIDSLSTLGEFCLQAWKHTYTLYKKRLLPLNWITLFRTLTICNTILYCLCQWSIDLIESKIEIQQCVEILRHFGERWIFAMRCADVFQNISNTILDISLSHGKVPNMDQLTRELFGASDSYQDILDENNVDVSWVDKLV
Experiment: PBM E-score (8-mer binding enrichment) (E-score (-0.5 to 0.5)); higher = stronger / more preferred TF binding; most listed sequences are background and not binding sites
Settings: protein concentration: 200 nM; construct: GST-full length
Method in brief: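 Yeast transcription factors carrying a GST tag, as full-length proteins or DNA-binding domains, were produced by PURExpress in vitro transcription/translation. About 100-200 nM protein was applied to universal all-10-mer Agilent arrays, double-stranded by primer extension on fresh or once-stripped slides. Bound protein was detected with fluorescent anti-GST, and scans were normalised with masliner. The Universal PBM Analysis Suite gave each ungapped eight-base word, pooled with its reverse complement, an E-score, a modified Wilcoxon-Mann-Whitney statistic.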

Sequence | PBM E-score
AGCAGAAG | -0.0817
ACAGGCGC | 0.0177
TCGTATCA | -0.097
GAGCGCAA | -0.122
GCGGGTTA | 0.148
CCGCGAGA | 0.133
CGAGTCAC | -0.0126
TCTTTGAA | -0.122
CACTATCA | -0.126
GAACAAAA | -0.0824
AACCAAAA | -0.102
CAGTTCAA | -0.157
ACCCAGGA | -0.229
ATTTCTAG | 0.0951
CCCACATA | 0.0472
CCAGCACA | -0.157
CGCTCCGC | 0.164
TAGGCTAA | -0.174
GTAGTGAA | -0.131
CACGCGAA | -0.207
AATCTGCA | -0.273
CACAAGTG | -0.211
ACGGTTAA | 0.00553
ATGATCGG | 0.297
GTGTATGA | -0.0134

Sequence | PBM E-score
ATTTATGA | 0.0478
ATCCTTTA | 0.127
AGAGGTAT | -0.189
TGTGAGAA | -0.0988
ACGGGATC | 0.21
TCCACCCA | -0.0819
GAGAGTCA | -0.12
ATGTAGTA | -0.0458
ATCAGCTC | -0.0577
GCACTGAA | -0.133
TAAGTCTA | -0.0952
CTAACCCA | -0.185
CTTTAGGA | -0.0789
TGTTGAAA | -0.0848
CGGCCCCC | 0.0221
ATGAGCTA | -0.22
AAGCTGTG | -0.187
GGGATTTA | 0.351
GTTAAATA | 0.0556
ACCATCAT | -0.288
GAACGGCA | 0.281
CAGCACGA | -0.2
CACGTAAC | -0.0753
AGTATGTG | -0.0762
GCCGCTAC | 0.39

Sequence | PBM E-score
CCATAACA | 0.0384
AGTCTTAA | -0.0773
ATTGGGTC | -0.0644
GTTGAGTA | -0.00225
CTAGCTAA | -0.168
ACCGCTCG | 0.357
AGCGCGAC | -0.139
CCCAGAAC | -0.156
ATTTCTAA | -0.0632
AATCCTAC | -0.172
ATTCGGCA | 0.179
CATCAAGC | -0.106
AGTCCAGC | -0.223
AACCTTTG | -0.0639
AAGCGTCA | -0.32
GGTTAACC | -0.0109
GGCCGCCC | 0.253
CGATTCCA | -0.0241
AACATTCC | -0.0795
CGAGGTTC | -0.0789
AGGTTACC | 0.108
ATGAAACC | 0.0892
AGTCCCAA | -0.121
CGGAGTTC | 0.326
AATTGTGA | -0.21

Sequence | PBM E-score
AGTCATAC | -0.143
ACCCTACG | -0.0552
ACCGGGAT | 0.323
CGTTCCGA | 0.00452
GCACATCC | -0.0283
ATCCTCTC | -0.286
GGGAGGCA | 0.111
GTCGCAAA | -0.0343
CGTACCCC | 0.00585
ACAAAGAT | -0.329
AGGCTGTA | -0.226
ACATTATC | 0.0703
CTAGGCAG | -0.0998
AATTCCTA | -0.258
GAGTCACA | -0.0801
ACATGGAA | -0.0514
ACACCGGT | 0.421
CCACAACA | -0.182
CGACCAGC | 0.128
ATGTACAA | 0.0239
ACGGTACC | 0.283
ACAATATA | 0.135
CTATGCAA | -0.111
CTCCAGTA | -0.0368
CGCTCCTC | -0.0314

Sequence | PBM E-score
TAACCAGA | -0.245
ACTGCCAT | -0.249
ACTCTGCT | -0.301
CCACACTC | -0.0515
ATGCGAGC | -0.184
ATACAAAA | -0.135
ACACTTTC | -0.101
GCACGTAC | -0.152
CTCTAAGC | 0.0585
GCTGTGTA | -0.146
ACAAAGAC | -0.00636
CCCCCTCA | -0.286
CATAGGGA | -0.0738
CCGAATAG | 0.139
ACCTAGGC | -0.185
CATCAGTC | 0.132
ACGTGGAT | -0.137
ACGCAGTG | -0.148
ACCCCAAC | -0.113
TTCCCGAA | 0.241
TCCTACGA | -0.186
AGTGGGGA | 0.0889
AAGCTCTC | -0.155
AGTTACTC | -0.0433
ATATTTTG | 0.118

Sequence | PBM E-score
ACTGTGTA | -0.163
ACGCTATA | -0.0975
AAATTGAC | 0.0873
CCTTTTAG | -0.196
ATATATAA | 0.194
ATGTCTCA | -0.224
CCCGTATA | 0.195
CTGCTGGC | -0.124
AAATATTT | -0.0738
ACCGTCCG | 0.317
CCACTCTA | -0.147
GACACTCA | 0.0419
AATTTTCA | -0.105
ACAGCTTG | -0.235
ACTCCACT | -0.23
CTGCCAGA | -0.09
CTTTCACC | 0.273
TAATGCGA | 0.0246
CGCAGCTA | 0.281
ATATACCG | 0.34
AGTACACC | -0.013
CCTAAGCC | 0.0181
CAAACCAG | -0.206
CCCGAACC | 0.144
GGTAACAC | 0.111

Sequence | PBM E-score
CAGTGGTC | -0.143
CCGGTGCG | 0.314
GGTCCTGA | -0.0742
CAGTCACG | -0.06
CCTTATAC | -0.156
CCTGGTAG | -0.154
CACACGCA | -0.206
CACACCGG | 0.327
GTTACGAA | -0.115
ACGTGCAA | -0.134
GAAACCAC | -0.0862
CAGCCCGC | 0.141
CAAACACG | -0.114
GACTAGAC | -0.181
GCCGTTCC | 0.202
TGCGCTAA | 0.0986
ATTGGCAG | -0.0617
CAGCAAAG | -0.103
TATCTTGA | -0.0906
ACGCTGCC | -0.0282
GTCTCGAA | -0.238
AGTCTCTC | -0.239
